# Assay results from the supplement of paper PMC11417369.
# The list shows a part of the results.
# Test system: PfHDP1 homeodomain (GST-tagged)
# Assay: gcPBM binding intensity (ln(normalized median fluorescence intensity)); higher = stronger DNA binding
# Summary of the method: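 For binding intensity, the highest Masliner-normalised natural-log median intensity across replicate spots of either probe orientation was taken. Protein bound to the array was stained with Alexa488 anti-GST antibody and scanned at 488 nm. The protein, GST-tagged P. falciparum DNA-binding domains from E. coli at about 25 μg on average, had been applied for 1 h to an Agilent 4 × 180k array of primer-extended double-stranded 36-bp intergenic genomic probes and negative controls.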
row,Sequence,gcPBM binding intensity (ln)
1,CTTCATAAAAATTGCACACATATAATAATGTACATA [CACACA_site2212],10.4
2,TATTAAAAGGTGAGTACACACATATCTGAGTATATA [CACACA_site5192],6.83
3,TTAAAAAGAGGTGACACACACATATAAATCTAAATC [CACACA_site3738],6.22
4,TAATATACTATAAATACACACAAGTGTACATACTTC [CACACA_site983],6.52
5,TACAATATAATTTAATGTACATGTGAATATATATAT [XGTACX_site4675],8.08
6,TTGTGCTAAACAAAAAAAAATATATATAAAAAAATA [XGTACX_negctrl_site388],6.44
7,GTTATTAAATAATTCACACACATATATAAATAAATA [CACACA_site7129],6.7
8,ATAAAAATATATGAAACACACAGTTTCTATAAGAAA [CACACA_site4156],6.08
9,ATATGTATATAATAAGAACACACATATATTTAATTT [CACACA_site8961],6.48
10,ATTATTATAGATAAAACACACAATTTTGTTTTCACA [CACACA_site7792],6.33
11,TTAACAAAGAAACACACACACACACCCAAAAAAAAA [CACACA_site516],7.03
12,GCCATAAAGATATATACACACATAAAAAAAAGTTAT [CACACA_site6674],6.72
13,AAAAAAAAAATTAAATGTACATATATAATATATATA [XGTACX_site7245],7.1
14,TTATATTTTATTATGTGTACGTATATAATATAATAT [XGTACX_site6230],6.43
15,AAACAATTATTATATTGTACATATATTACATTATTA [XGTACX_site1089],6.23
16,TAAAACTTAATGTTTTGTACATATTCTTCTTTATTT [XGTACX_site4271],6.16
17,AATCAAAAAGGAACCATAATATTACAACTATATATA [CACACA_negctrl_site381],6.33
18,TTTTATACATATTTTACACACTAAAATATACAGATA [CACACA_site4333],6.65
19,TTACATATTCATAAAAGTACATAATTATAAAAGGTA [XGTACX_site906],6.68
20,AAAATTAATTTATTTACACACAATATTAAAATATTT [CACACA_site7512],6.66
21,ACATGCAAGAAGAAATGTACTTAACATCTATATAGA [XGTACX_site7338],6.54
22,ACTAAATAAATAAATATAATATATAAATATGTATGT [TGCATGCA_negctrl_site583],6.31

row,Sequence,gcPBM binding intensity (ln)
1,GTATATATGTTTTATACACACATTAAAGGAAATATA [CACACA_site984],6.68
2,CACAAACAGACAAACACACACACACGGACATACATA [CACACA_site6350],6.78
3,TATAATATATAAAAATGTACACATAAATATAAGTAG [XGTACX_site665],6.8
4,TTTTTGTATTCTTCTTCTTCCAGACTACATTATGTC [XGTACX_negctrl_site235],6.59
5,ATATATTTAAAATTGACACACATTTAATGACATTTT [CACACA_site3112],6.26
6,TATATATGGAAAAGAGTCAAAAAGAAAAAAGAAAAA [CACACA_negctrl_site1374],6.08
7,TATGAAATATTTATACACAGAACTTCATAATTTTCA [TGCATGCA_negctrl_site509],6.26
8,CATTTTTTGCTTTCAACACACATACAATATATATAA [CACACA_site6127],7
9,CTTTATTTTTTATACACACACAATATGTATATATAT [CACACA_site3550],7.24
10,AAGGATCACGCACAAACACACATATTTATATTTATA [CACACA_site6405],7.35
11,TTTTTATTTTTTGAAACACACACAAAAAAAATGATA [CACACA_site8564],6.84
12,TAAGGATATATATATTCACACACACCGGGAAATATA [CACACA_site8020],6.71
13,AAACAAATATATATATGTACTTATAAAAAAAAAAAT [XGTACX_site2211],6.64
14,TATTTGCAATATTATACACACATTAGATATTGCAAA [CACACA_site7565],9.59
15,TAATATATATAACATATACACACGTTCATATATATA [CACACA_site462],6.58
16,AACAAATTAATTCTAGTGCAGGACGTATTTGTGTAC [GTGCAC_site9907],7.26
17,TACAAAATGTTATATCAATATAGATAAAAAAATGAA [XGTACX_negctrl_site285],6.63
18,AAAAAAAAAAAAAAATGTACATATATAATATTTATA [XGTACX_site5117],6.51
19,ATTAAATTAAAATAATGTACTTAATACTTTTGCTTA [XGTACX_site8404],6.17
20,AACAATTTTTAAAGGTGTACAATATGTATATAAGAA [XGTACX_site254],7.09
21,AATTTTGAGATGTGGTGTACACAAAATTAGTTAGAC [XGTACX_site7033],7.44
22,TCAACGATCACTCGGTGTACTATAAATGAGAGAATT [XGTACX_site1820],6.3
